Data: article PMC4336329 (PLoS ONE, 2015)
Hit rate of the full screen: of about 310,000 compounds, about 14,000 (4.5%) showed an effect of 50% or more. The effect is printed as a negative number. The list shows a part of the results.
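Further: peak tail current of the secondary pulse compared with the same well before compound.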

What follows are compounds tested against human ether-à-go-go-related gene (hERG) potassium channel (human, UniProt Q12809) (assay: primary screen, population patch clamp on CHO cells stably expressing hERG).
Chain of human ether-à-go-go-related gene (hERG) potassium channel (Q12809 whole entry, looked up): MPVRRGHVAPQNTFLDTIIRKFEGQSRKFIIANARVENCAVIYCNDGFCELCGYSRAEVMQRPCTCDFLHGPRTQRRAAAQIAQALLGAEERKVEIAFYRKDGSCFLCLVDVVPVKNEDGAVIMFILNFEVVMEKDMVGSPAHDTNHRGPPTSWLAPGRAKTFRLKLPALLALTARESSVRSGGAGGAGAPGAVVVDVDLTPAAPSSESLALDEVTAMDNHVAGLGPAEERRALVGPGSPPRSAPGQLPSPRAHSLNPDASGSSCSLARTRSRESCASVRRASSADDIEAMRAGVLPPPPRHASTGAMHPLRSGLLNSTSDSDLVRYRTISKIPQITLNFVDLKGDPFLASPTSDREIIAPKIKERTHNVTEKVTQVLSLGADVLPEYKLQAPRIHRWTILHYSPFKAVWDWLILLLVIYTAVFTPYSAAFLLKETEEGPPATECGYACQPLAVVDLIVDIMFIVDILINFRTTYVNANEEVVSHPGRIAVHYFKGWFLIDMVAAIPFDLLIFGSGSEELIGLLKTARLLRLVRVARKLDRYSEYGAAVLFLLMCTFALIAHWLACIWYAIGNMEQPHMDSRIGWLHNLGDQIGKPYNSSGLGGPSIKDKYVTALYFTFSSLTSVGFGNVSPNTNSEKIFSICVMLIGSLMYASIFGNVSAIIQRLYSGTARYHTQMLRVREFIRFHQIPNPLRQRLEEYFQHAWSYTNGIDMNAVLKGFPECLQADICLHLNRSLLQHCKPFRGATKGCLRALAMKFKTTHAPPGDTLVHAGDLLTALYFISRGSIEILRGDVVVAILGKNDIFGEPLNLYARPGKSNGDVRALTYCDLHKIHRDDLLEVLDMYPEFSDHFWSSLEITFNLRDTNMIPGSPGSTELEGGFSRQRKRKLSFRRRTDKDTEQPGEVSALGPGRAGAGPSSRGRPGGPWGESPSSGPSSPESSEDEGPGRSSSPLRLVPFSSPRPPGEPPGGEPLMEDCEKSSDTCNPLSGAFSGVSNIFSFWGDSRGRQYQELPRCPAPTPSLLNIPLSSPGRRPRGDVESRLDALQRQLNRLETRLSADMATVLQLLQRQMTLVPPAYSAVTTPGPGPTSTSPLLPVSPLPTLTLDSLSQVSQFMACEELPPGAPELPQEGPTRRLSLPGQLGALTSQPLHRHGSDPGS
With `Cc1nn(C)c2ncc(C(=O)c3ccccc3O)cc12` the “hERG current change (%, negative = inhibition) at 10uM” value was 13.7%.
For `CCOc1ccc(S(=O)(=O)NCCC(=O)N2CC(C)OC(C)C2)cc1` (centres unmarked), the “hERG current change (%, negative = inhibition) at 10uM” value was 8.02%.
In the case of `Cc1cccc(-n2c(-c3ccco3)nc3nc4ccccc4nc32)c1`, the “hERG current change (%, negative = inhibition) at 10uM” value is reported as -8.72%.
In the case of `Cc1ccnc(SCC(=O)c2ccc([N+](=O)[O-])cc2)n1`, the “hERG current change (%, negative = inhibition) at 10uM” value is reported as -22.7%.
`CCc1nc(N2CCN(S(=O)(=O)c3ccc(Br)cc3)CC2)c2c(C)c(C)sc2n1` was tested, and the “hERG current change (%, negative = inhibition) at 10uM” value was -32%.
For `O=C(c1cc2ccccc2oc1=O)N(c1ccccc1)C1C=CS(=O)(=O)C1` (centres unmarked), the “hERG current change (%, negative = inhibition) at 10uM” value was 2.29%.
For `CCc1nnc(NS(=O)(=O)c2ccc(NC(=O)c3ccco3)cc2)s1`, the “hERG current change (%, negative = inhibition) at 10uM” value was 1.04%.
For `CC12CCC(C(=O)O)(c3nc4cc([N+](=O)[O-])ccc4nc31)C2(C)C` (centres unmarked), the “hERG current change (%, negative = inhibition) at 10uM” value was -1.75%.
For `O=C(Nc1ccccc1F)c1ccc([N+](=O)[O-])s1`, the “hERG current change (%, negative = inhibition) at 10uM” value was 0.218%.
For `Cc1cc(C)n2nc(SCc3cc(=O)oc4cc(C)c(C)cc34)nc2n1`, the “hERG current change (%, negative = inhibition) at 10uM” value was 5.02%.
For `CCOC(=O)C1CCN(c2c(NCc3ccc(C(=O)NC(C)CC)cc3)c(=O)c2=O)CC1` (centres unmarked), the “hERG current change (%, negative = inhibition) at 10uM” value was -17.1%.
`O=C(O)CCC(=O)NCCn1c(-c2ccccc2)csc1=Nc1ccccc1` was tested, and the “hERG current change (%, negative = inhibition) at 10uM” value was 7.98%.
For `CCN(C(=O)c1cccc(F)c1)c1ccccc1C`, the “hERG current change (%, negative = inhibition) at 10uM” value was -3.53%.
For `C#CCN1c2ccccc2Sc2cccnc21`, the “hERG current change (%, negative = inhibition) at 10uM” value was 16.2%.
For `O=C(O)CCNS(=O)(=O)c1ccc(Oc2ccccc2Cl)cc1`, the “hERG current change (%, negative = inhibition) at 10uM” value was -5.18%.
In the case of `COC(=O)C1SCC2C(=O)N(Cc3ccc(F)cc3)CC(=O)N21` (centres unmarked), the “hERG current change (%, negative = inhibition) at 10uM” value is reported as 14.3%.
`CC(=O)Nc1cccn(Cc2c(Cl)cccc2Cl)c1=O` was tested, and the “hERG current change (%, negative = inhibition) at 10uM” value was 9.71%.
In the case of `Cc1ccc(S(=O)(=O)NCCC(=O)NNC(=O)C2COc3ccccc3O2)cc1` (centres unmarked), the “hERG current change (%, negative = inhibition) at 10uM” value is reported as -4.79%.
For `CC(C)OP(=O)(O)NC(=O)c1ccccc1`, the “hERG current change (%, negative = inhibition) at 10uM” value was 23.8%.
For `Cc1ccc(NC(=O)CCCCCNS(=O)(=O)c2ccc(C)cc2)cc1`, the “hERG current change (%, negative = inhibition) at 10uM” value was 3.11%.
In the case of `CCOC(=O)CN(C(=O)c1ccccc1[N+](=O)[O-])C(C)(C)C`, the “hERG current change (%, negative = inhibition) at 10uM” value is reported as 9.73%.
In the case of `CCOc1ccc(C(=O)Nc2ccc(C(F)(F)F)n(C)c2=O)cc1`, the “hERG current change (%, negative = inhibition) at 10uM” value is reported as 14.5%.
In the case of `CCOc1ccc(C(=O)N2CCCC2)cc1OC`, the “hERG current change (%, negative = inhibition) at 10uM” value is reported as -14.7%.
`Cc1ccc(S(=O)(=O)Nc2cccnc2)cc1` was tested, and the “hERG current change (%, negative = inhibition) at 10uM” value was 26.8%.
In the case of `Cc1cc(C)n(-c2ccc(C(=O)N3CCc4ccccc43)cc2)n1`, the “hERG current change (%, negative = inhibition) at 10uM” value is reported as -3.89%.
For `O=C(COC(=O)Cc1ccc(F)cc1)Nc1cc(S(=O)(=O)N2CCOCC2)ccc1N1CCCC1`, the “hERG current change (%, negative = inhibition) at 10uM” value was -17.5%.
`CCN(CC)S(=O)(=O)c1ccc(O)c(NS(=O)(=O)c2ccccc2F)c1` was tested, and the “hERG current change (%, negative = inhibition) at 10uM” value was 5.58%.
`COc1ccc2nc(-c3ccccc3)nc(SCC(=O)NCC3CCCO3)c2c1` (centres unmarked) was tested, and the “hERG current change (%, negative = inhibition) at 10uM” value was 7.99%.
In the case of `CCCC(=O)Nc1nc2nc(-c3ccccc3)cc(=O)n2[nH]1`, the “hERG current change (%, negative = inhibition) at 10uM” value is reported as 7.12%.
`COc1ccc(C2C(C(=O)NCCN(C)C)c3ccccc3C(=O)N2C)cc1OC` (centres unmarked) was tested, and the “hERG current change (%, negative = inhibition) at 10uM” value was 18.9%.
With `CNC(=O)c1ccc(NC(=O)C2CCN(S(=O)(=O)c3cccc(C(F)(F)F)c3)CC2)cc1` the “hERG current change (%, negative = inhibition) at 10uM” value was 13.9%.
With `Nc1cc(C(=O)OCC(=O)NNC(=O)c2ccccc2)ccc1Cl` the “hERG current change (%, negative = inhibition) at 10uM” value was 11.1%.
For `COc1ccc(/C=C/C(=O)NC(=S)Nc2cc3oc4ccccc4c3cc2OC)cc1`, the “hERG current change (%, negative = inhibition) at 10uM” value was 6.42%.
For `Cc1ccc(C)c(-c2nnc(NC(=O)C3=COCCO3)o2)c1`, the “hERG current change (%, negative = inhibition) at 10uM” value was -6.03%.
In the case of `CC1CCCCC1NS(=O)(=O)c1ccc2c(c1)CCC(=O)N2` (centres unmarked), the “hERG current change (%, negative = inhibition) at 10uM” value is reported as -19.3%.
`Cc1ccc2nc(Cl)c3cc(C(=O)N(CCN(C)C)Cc4ccco4)sc3c2c1` was tested, and the “hERG current change (%, negative = inhibition) at 10uM” value was -39.8%.
With `Cc1ccc(OCC(=O)NNC(=O)CSc2ncnc3sc(C)c(C)c23)cc1` the “hERG current change (%, negative = inhibition) at 10uM” value was 39.6%.
For `COc1cccc(NC(=O)N2CCC(N3CCCCC3)CC2)c1`, the “hERG current change (%, negative = inhibition) at 10uM” value was -7.99%.
In the case of `CCOc1ccc(N(CC(=O)NCc2ccc(OC)cc2)S(C)(=O)=O)cc1`, the “hERG current change (%, negative = inhibition) at 10uM” value is reported as 2.61%.
In the case of `CCOC(=O)CSc1nnc(Cn2c(=O)sc3ccccc32)n1C`, the “hERG current change (%, negative = inhibition) at 10uM” value is reported as -7.01%.
In the case of `Nc1nc(Sc2ncccc2[N+](=O)[O-])n[nH]1`, the “hERG current change (%, negative = inhibition) at 10uM” value is reported as 3.27%.
With `CC(=O)N1CCc2cc(S(=O)(=O)NC(Cc3ccccc3)C(=O)O)ccc21` (centres unmarked) the “hERG current change (%, negative = inhibition) at 10uM” value was 11%.
In the case of `CCOC(=O)c1sc2nccc(N(C)C)c2c1N=CNOCc1c(F)cccc1Cl`, the “hERG current change (%, negative = inhibition) at 10uM” value is reported as -9.04%.
For `Cc1ccccc1OCC(=O)N/N=C/c1ccc(N(C)C)cc1`, the “hERG current change (%, negative = inhibition) at 10uM” value was -4.56%.
`O=S(=O)(Nc1ccc(S(=O)(=O)N2CCOCC2)cc1)c1ccccc1` was tested, and the “hERG current change (%, negative = inhibition) at 10uM” value was 1.13%.
`CC(=O)c1ccc(N2CCN(c3ccc(S(=O)(=O)N4CCN(C)CC4)cn3)CC2)cc1` was tested, and the “hERG current change (%, negative = inhibition) at 10uM” value was -24.4%.
In the case of `CCc1nnc(NC(=O)OCc2ccccc2)s1`, the “hERG current change (%, negative = inhibition) at 10uM” value is reported as -3.89%.
`c1cc(Nc2cccc3nccnc23)c2nccnc2c1` was tested, and the “hERG current change (%, negative = inhibition) at 10uM” value was 17.9%.
For `O=C(Nc1ccccc1N1CCN(C(=O)c2ccc(Cl)cc2)CC1)c1ccc2c(c1)OCO2`, the “hERG current change (%, negative = inhibition) at 10uM” value was -46.8%.
With `COc1ccc(-n2nnnc2SCC(=O)NNC(=O)c2ccc([N+](=O)[O-])cc2)cc1` the “hERG current change (%, negative = inhibition) at 10uM” value was -18.6%.
For `CCCc1nc(SCC(=O)Nc2nc3c(s2)CCCC3)c2ccccc2n1`, the “hERG current change (%, negative = inhibition) at 10uM” value was -2.46%.
`CC(Oc1ccc(F)cc1)C(=O)Nc1cc(S(=O)(=O)N2CCOCC2)ccc1N1CCCCC1` (centres unmarked) was tested, and the “hERG current change (%, negative = inhibition) at 10uM” value was 6.32%.
With `CC(=O)c1c(C)oc2ccc(NS(=O)(=O)c3ccc(F)cc3C)cc12` the “hERG current change (%, negative = inhibition) at 10uM” value was -13.8%.
`O=C(COC(=O)c1cccs1)Nc1ccccc1C(F)(F)F` was tested, and the “hERG current change (%, negative = inhibition) at 10uM” value was 15.8%.
With `Cc1cc(C)nc(SCc2ccc(C(=O)N/N=C/c3ccccn3)cc2)n1` the “hERG current change (%, negative = inhibition) at 10uM” value was -32.8%.
For `CCOc1ccc(Nc2nc(N)nc(CCl)n2)cc1`, the “hERG current change (%, negative = inhibition) at 10uM” value was -8.2%.
